Source: PubChem BioAssay (NCI)
Values joined by “and” are separate entries in the source; they are usually repeats but may differ in a detail not shown here. Equal entries are not always repeated.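 Following 48 hours of exposure in 96-well plates, responses at five concentrations were used to interpolate endpoints linearly. At the GI50, growth is halved. TGI: total growth inhibition.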 Square brackets hold non-standard residues; d marks the D form. Peptide text beside a SMILES is read from it. * marks the point of attachment. Phe(4-NO2) = N[CH](Cc1ccc([N+](=O)[O-])cc1)C(=O)O; Boc = CC(C)(C)OC(=O)*; OtBu = CC(C)(C)O*

System: NCI-H322M lung
Assay: inhibition of tumour cell growth, NCI panel, 48 h

| Compound | TGI | GI50 |
| --- | --- | --- |
| CC(C)CC1c2[nH]c3ccccc3c2C[C@H]2C(=O)NC(COC(C)(C)C)C(=O)N12 (stereo not given in full) | > 100 µM |  |
| CN1CCN(C(=S)SCN2C(=O)c3ccccc3S2(=O)=O)CC1 | > 100 µM | 96.4 µM |
| CCC1NCC(=O)c2c1[nH]c1ccccc21 (stereo not given) | > 100 µM |  |
| O=C(O)c1ccc(Nc2cnc3ccc(C(F)(F)F)cc3n2)cc1 | 37.9 µM |  |
| O=C(CN=Cc1cccs1)CSC(c1ccccc1)c1ccccc1 | > 100 µM | 33.6 µM |
| NC(CO)c1ccccc1 (stereo not given) | > 100 µM |  |
| Clc1ccccc1C1=NN(c2ccccc2)C2c3cc(Br)ccc3OCC12 (stereo not given) | > 100 µM |  |
| C#Cc1cccc(Nc2ncnc3ccc(-c4cncc(NS(C)(=O)=O)c4)cc23)c1 | 4.41 µM | 0.411 µM |
| N#Cc1ccc(N2Cc3cc(Cl)ccc3OC3=C2C(=O)N(Cc2ccccc2)C3=O)cc1 | 20 µM | 7.21 µM |
| CN1C(=O)[C@@]2(C=CC3(CC2)OCCO3)c2ccccc21 | > 50 µM |  |
| CCOC(=O)C(Cc1c(-c2[nH]c3ccccc3c2CC(NC(=O)CNC(C)=O)C(=O)OCC)[nH]c2ccccc12)NC(=O)CNC(C)=O (stereo not given) | > 100 µM |  |
| Clc1ncc(C(Cl)(Cl)Cl)nc1-c1ccccc1 | 3.37 µM |  |
| Cc1ns/c(=N\C(=S)N(C)C)n1C | > 100 µM |  |
| CSCCC(NC(=O)C(CC(C)C)NC(=O)CNC(=O)OC(C)(C)C)C(=O)N(C)C (stereo not drawn) (Boc-Gly-Leu-Met-NMe2; configuration not given here) | > 100 µM |  |
| CC(=O)Nc1ncc2c(n1)-c1ccccc1OC2 | > 100 µM |  |
| CN1c2ccccc2C(=O)Nc2cnc(Cl)nc21 | > 100 µM |  |
| Cc1cccc(N2CCN(S(=O)(=O)c3ccc(Cl)cc3)C2=N)c1C | > 100 µM |  |
| O=c1c2cc(F)ccc2sc2c(NCCCN3CCCC3)nc3ccccc3c12 | 6.68 µM | 2.35 µM |
| COc1ccc(S(=O)(=O)Nc2ccc(-c3csc(N4C(=O)/C(=C/C=C\c5ccccc5)N=C4c4ccccc4)n3)cc2)cc1Cl | > 100 µM |  |
| C=C(CC1(CC(=C)c2ccc(C(=O)O)cc2)C(=O)N(C)C(=O)N(C)C1=O)c1ccc(C(=O)O)cc1 | > 100 µM | 37.7 µM |
| CC(=O)c1nccc2c1c(C)nc1ccccc12 | > 100 µM |  |

| Compound | TGI | GI50 |
| --- | --- | --- |
| COc1ccc(N(Cc2cc(OC)c(OC)c(OC)c2)C2OC(=O)c3ccccc32)cc1 (stereo not given) | > 100 µM | 1.05 µM |
| C=C1C(=O)C[C@@]23CCC[C@@]12CC(O)C3 (stereo not given in full) | > 80.3 µM |  |
| CC(=O)N[C@@H]1CCC[C@H](C(=O)Nc2cc(-c3cnn4c3CC(C)(C)C4)c(Cl)cn2)C1 | > 37.6 µM | < 0.0129 µM |
| Cc1nc(C(N)=S)sc1C(=O)CC(=O)C(=O)Nc1cccc(Cl)c1C | > 100 µM |  |
| CCN(CC)CCOc1ccc(C2=C(c3ccccc3)CCc3cc(OC)ccc32)cc1 | 14.3 µM | 3.61 µM |
| CCN1CC2(C)CC[C@@H](OC)C34[C@@H]2[C@H](OC(C)=O)C2(OCO[C@@]25C[C@H](OC)C2C[C@]3(O)[C@@H]5[C@H]2O)[C@H]14 | > 100 µM |  |
| O=C(CCCN1CCc2[nH]c3cc(F)ccc3c2C1)c1ccc(F)cc1 | 25.4 µM |  |
| C=CCOn1c(C=C)nc2c(C)cccc21 | 14.7 µM |  |
| C/C(=N\O)c1ccc(Nc2c3ccccc3nc3occc23)cc1 | > 50 µM |  |
| CCCCCCCC(CC(=O)O)OC(=O)CC(CCCCCCC)OC1OC(C)C(O)C(O)C1OC1OC(C)C(O)C(O)C1O (stereo not given) | > 100 µM |  |
| CCc1nc(N)nc(N)c1-c1ccc([N+](=O)[O-])c(Cl)c1 | > 100 µM |  |
| CN(Cc1nc2c(N)nc(N)nc2nc1N)c1ccc(C(=O)NC(CCC(=O)O)C(=O)O)cc1 (stereo not given) | > 100 µM |  |
| Cc1ccc(OCCCCCCNCCO)c(C)c1 | 30.7 µM | 15.5 µM |
| COc1cc(OC)cc(N2CCN(C(=O)Nc3nc4cc(F)ccc4nc3OC)CC2)c1 | > 100 µM and 92.5 µM | 0.0665 µM and 0.0726 µM and 0.0746 µM |
| CC1(C)CC2(C)OC2C2(C1)N=NC(=Nc1ccccc1)O2 (stereo not given) | 40.2 µM | 16.1 µM |
| COc1cc(C2S/C(=C/c3ccccc3)C(=O)N2c2ccc(Cl)cc2)cc(OC)c1OC (stereo not given) | > 100 µM |  |
| CSc1nc(Br)nc2c1ncn2C1CC(Oc2ccc(C)cc2)C(COc2ccc(C)cc2)O1 (stereo not given) | > 100 µM |  |
| CN(C)c1ccc(Sc2ccc3nc(N)nc(N)c3c2)cc1 | 17.4 µM | 1.15 µM |
| CC1SC2(CCCCC2)N(NC(=O)c2[nH]c3ccc(F)cc3c2-c2ccccc2)C1=O (stereo not given) | > 100 µM | > 100 µM |
| COc1cc2c(cc1OC)[C@H]1C(=O)c3cc4c(cc3[C@H]1N(C)C2=O)OCO4 | > 100 µM |  |
| C/C=C\C(CC(=O)O)CC(=O)NCCC1CN(S(=O)(=O)C(F)(F)F)c2ccccc21 (stereo not given) | > 100 µM |  |

| Compound | TGI | GI50 |
| --- | --- | --- |
| COc1cc2cc3c4c(cc(OC)c(OC)c4c2cc1OC)CCN3C(=O)OCCBr | > 100 µM |  |
| CC(=O)C1=C(O)/C(=C\c2ccco2)OC1=O | > 10 µM |  |
| COC(=O)C(Cc1ccc([N+](=O)[O-])cc1)NC(=O)C(CC(=O)OC(C)(C)C)NC(=O)OC(C)(C)C (stereo not given) (Boc-Asp(OtBu)-[Phe(4-NO2)]-OMe; configuration not given here) | > 100 µM |  |
| Cc1csc(Nc2nc(-c3cccc(Cl)c3)nc(C(Cl)(Cl)Cl)n2)n1 | 1.91 µM | 0.701 µM |
| C/C(=C/CC[C@](C)(OC1OC(CO)C(O)C(O)C1O)[C@H]1CC[C@]2(C)[C@@H]1CC[C@@H]1[C@@]3(C)CC[C@H](O)C(C)(C)[C@@H]3C[C@H](O)[C@]12C)CO (stereo not given in full) | > 100 µM |  |
| CC(C)(C)NCCC(O)c1cc(C(F)(F)F)nc2c(C(F)(F)F)cccc12 (stereo not given) | 25 µM |  |
| CCCOc1c2cc(COC3OC(CO)C(O)C(O)C3O)cc1Cc1cc(COC3OC(CO)C(O)C(O)C3O)cc(c1OCCC)Cc1cc(COC3OC(CO)C(O)C(O)C3O)cc(c1OCCC)Cc1cc(COC3OC(CO)C(O)C(O)C3O)cc(c1OCCC)C2 (stereo not given) | > 100 µM | > 100 µM and 41.7 µM and 35.6 µM |
| CN1CC(C(=O)NC2(C)OC3(O)C4CCCN4C(=O)C(Cc4ccccc4)N3C2=O)C=C2c3cccc4[nH]cc(c34)CC21 (stereo not given) | > 100 µM |  |
| O=C(O)CNC(=O)c1cccc2c(=O)c3ccccc3[nH]c12 | > 100 µM |  |
| COC1(OC)/C(=C(\N)C=O)NC(C)(C)N1O | > 100 µM |  |
| CNC(=O)OCC1=C(COC(=O)NC)CN(c2ccccc2)C1 | > 100 µM |  |
| C/C(=N/Nc1ccc([N+](=O)[O-])cc1[N+](=O)[O-])C(CC(C(=O)Nc1ccccc1C)/C(C)=N\Nc1ccc([N+](=O)[O-])cc1[N+](=O)[O-])C(=O)Nc1ccccc1C (stereo not given) | 30 µM |  |
| COc1cc2c(c(OC)c1OC)-c1ccc(SC)c(=O)cc1[C@@H](NC(=O)c1ccc(C#N)cc1)CC2 | > 100 µM |  |
| COc1cc(/C=C2\C[C@H]3[C@@H]4CC=C5C[C@@H](N6CCCC6)CC[C@]5(C)[C@H]4CC[C@]3(C)[C@H]2OC(C)=O)cc(OC)c1OC | 28.7 µM |  |
| C=CCN1C(=O)/C(=C/c2ccc(Cl)cc2)N=C1SC1OC(COC(C)=O)C(OC(C)=O)C(OC(C)=O)C1OC(C)=O (stereo not given) | > 100 µM and 85.1 µM |  |
| CCCCCCCCCCCCCCCC(=O)OCC1OC(n2ccc(N)nc2=O)C(O)C1O (stereo not given) | > 100 µM |  |
| CC[C@@]1(OC(=O)CN(C)C)C(=O)OCc2c1cc1n(c2=O)Cc2cc3ccccc3nc2-1 | 4.86 µM |  |
| COc1cc(/C=C\c2cccnc2Nc2ccccc2)cc(OC)c1OC | > 100 µM | 21.1 µM |
| C[C@]12CC[C@@H]3c4ccc(O)cc4CC[C@H]3[C@@H]1CC[C@@H]2NS(=O)(=O)c1ccc(-c2ccccc2)cc1 | > 100 µM | 9.99 µM |
| COc1cc(CC(=O)c2ccc3c(c2)OCO3)cc(OC)c1OC | > 100 µM |  |
